Source: PubChem BioAssay AID1479 (National Center for Advancing Translational Sciences (NCATS), 2009)
Several values for one entry are separate records, joined by “and”; a condition that tells them apart may be missing. Identical values can stand only once. In all, about 280,000 compounds went through this assay and about 820 (0.29%) were called active. The inconclusive results got no clear call from the source; some entries with a clear call stand among them for comparison. The call rests on the fitted dose curve; in most records, active means well fitted curve in either direction with a large enough effect; inconclusive means small, poorly fitted or top-dose-only effect; inactive means flat fitted curve, though single readings scatter. A potency beside an inconclusive call is a rough fit, not a confirmed value.

Test: Total Fluorescence Counterscreen for Inhibitors of the Interaction of Thyroid Hormone Receptor and Steroid Receptor Coregulator 2
Conditions: TRb/SRC2 Texas Red total fluorescence interference; series mostly up to 106 µM
Method in brief: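 Flags fluorescent or light-absorbing compounds by total fluorescence, S + 2P, at 555 nm excitation and 632 nm emission. Mixture: 20 nM Texas Red SRC2 peptide, 0.6 uM human TRb LBD, 1 uM T3, 5% DMSO; compound exposure 5 h at ambient temperature.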
On the % scale 0 is the no-effect control and ±100 the full control effect; potency means the concentration at half of the fitted maximal effect; tags describe the fitted curve by direction and shape or compound fluorescence and quenching.

Row | SMILES | Potency | fluorescence change, negative = quenching
1 | CCn1c(=O)c(=O)[nH]c2cc(C(=O)NCC3CCCCC3)ccc21 | inconclusive: 50.1 µM [fluorescent, partial curve] | –
2 | COc1cc(NS(=O)(=O)c2ccc3c(c2)CC(C)N3C(=O)C2CCC2)cc(OC)c1OC (configuration not stated) | inconclusive: 20 µM [falling, full curve, poor fit] | –
3 | Cc1ccc(NC(=O)Cc2ccccc2Cl)cc1S(=O)(=O)N(C)C | active: 0.1 µM [quencher] | –
4 | Cn1nnnc1SCCCNCc1ccccc1OCc1ccc(F)cc1 | inconclusive: 0.0079 µM [falling, full curve, poor fit] | –
5 | COc1ccc2nc3ccccc3nc2c1N | inconclusive: 31.6 µM [quencher, full curve] | –
6 | CCCN(C(=O)Cn1ncc2c([nH]c3ccccc32)c1=O)c1ccc(F)cc1 | inconclusive: 22.4 µM [quencher, full curve] | –
7 | CCOC(=O)c1cnc2c(C)cc(C)cc2c1Nc1ccccc1OCC | inconclusive: 100 µM [quencher, partial curve] | –
8 | O=C(Nc1nnc(S(=O)(=O)N2CCCCCC2)s1)c1ccccc1 | inconclusive: 112 µM [quencher, partial curve] | –
9 | COc1cccc(/C=N/NC(=O)c2c(-c3ccccc3)noc2C)c1O | inactive | –
10 | CCC(C)C(NC(=O)C(Cc1ccc(O)cc1)NC(=O)C(N)C(C)C)C(=O)NC(Cc1cnc[nH]1)C(=O)N1CCCC1C(=O)NC(Cc1ccccc1)C(=O)O (configuration not stated) | inconclusive: 12.6 µM [quencher, full curve] | –
11 | CC(=O)c1ccc(N2C(=O)Nc3ccccc3S2(=O)=O)cc1 | inconclusive: 0.0355 µM [falling, full curve, poor fit] | –
12 | CCOC(=O)c1nc2cc3n(c(CC(C)C)c-2c1C)CC(C)=C3C | inconclusive: 44.7 µM [fluorescent, partial curve] | –
13 | Cc1cccc(NC(=O)CSc2nc3ccc(NC(=O)COc4ccc(Cl)cc4)cc3s2)c1 | inconclusive: 0.0089 µM [falling, full curve, poor fit] | –
14 | CCCCCCCCCCC1=C(C)C(=O)C(OC)=C(OC)C1=O | inconclusive: 89.1 µM [falling, partial curve, poor fit] | –
15 | O=C(O)c1ccc(Nc2nc(-c3ccccc3)c3cc(Br)ccc3n2)cc1 | inconclusive: 50.1 µM [falling, partial curve, poor fit] | –
16 | Nc1nc(Cl)cc(N2CCC(c3cc(-c4ccc(Cl)cc4)n[nH]3)CC2)n1 | inactive | –
17 | Cc1cc2n(n1)C(c1ccccc1)CC(c1ccc(Br)cc1)=N2 (configuration not stated) | inconclusive: 251 µM [quencher, partial curve] | –
18 | O=C1OC2(c3cc(Br)c(O)c(Br)c3Oc3c2cc(Br)c(O)c3Br)c2c(Cl)c(Cl)c(Cl)c(Cl)c21 | inconclusive: 1 µM [rising, full curve, poor fit] | –
19 | O=C(Nc1nc(-c2cccs2)c(-c2ccccc2)s1)c1ccco1 | inactive | –

Row | SMILES | Potency | fluorescence change, negative = quenching
20 | COC(=O)Nc1ccc(S(=O)(=O)N2CCCCC2C(=O)O)cc1 (configuration not stated) | inactive | –
21 | COc1cccc(-c2nnc3n(Cc4ccc(C)cc4)c(=O)c4ccccc4n23)c1O | inactive | –
22 | Nc1nc(SCC(=O)C23CC4CC(CC(C4)C2)C3)n[nH]1 | inactive | –
23 | COc1ccc(CNC(=O)COC(=O)Cc2ccc(Cl)cc2Cl)cc1 | active: 35.5 µM [quencher] | –
24 | C/C(CCC(=O)OC[C@@H]1O[C@H](C#Cc2ccccc2)C=C[C@@H]1Oc1ccc(C)cc1)=N/OC[C@@H](O)[C@H]1O[C@H]2OC(C)(C)O[C@H]2[C@@H]1O | – | inactive: 1.27% [at 11.2 µM]
25 | COc1ccc(/C=C/C(=O)NCc2cccnc2)cc1 | inconclusive: 0.447 µM [quencher, full curve] | –
26 | CCn1c(CSc2nnc3ccccn23)nc2cc(C(=O)O)ccc21 | active: 39.8 µM [fluorescent] | –
27 | COC(=O)c1cn(NC(=O)c2cnccn2)c(=O)c2ccccc12 | inactive | –
28 | O=C(c1coc(=O)c(Br)c1)N1CCCc2ccccc21 | inconclusive: 44.7 µM [quencher, partial curve] | –
29 | Cc1cccc(OCC(=O)Nc2ccc3nc(Nc4cccc(C(F)(F)F)c4)cc(C)c3c2)c1 | inconclusive: 22.4 µM [quencher, full curve] | –
30 | O=S(=O)(Nc1cccc(-c2ccc(N3CCCCCC3)nn2)c1)c1ccccc1 | inconclusive: 20 µM [falling, full curve, poor fit] | –
31 | O=C(Cc1ccc(-n2c(=O)[nH]c3ccsc3c2=O)cc1)NCc1cccnc1 | inconclusive: 4.47 µM [falling, full curve, poor fit] | –
32 | O=C(Nc1ccc2nc(SCC(=O)N3CCCc4ccccc43)sc2c1)c1cccc(Cl)c1 | inconclusive: 0.0631 µM [falling, full curve, poor fit] | –
33 | O=C(Cn1c(=O)n(-c2ccc(F)cc2)c(=O)c2sc3ccccc3c21)NC1CCCCC1 | inactive | –
34 | CCOC(=O)c1ccc2c(c1)N(Cc1cccc(C(F)(F)F)c1)C(=O)c1ccccc1S2(=O)=O | inactive | –
35 | O=C(NCC(c1cccnc1)N1CCOCC1)C(=O)Nc1ccc(F)cc1 (configuration not stated) | inconclusive: 112 µM [falling, partial curve, poor fit] | –
36 | Cn1c(SCc2cccc(F)c2)nc2c([nH]c3ccccc32)c1=O | inconclusive: 0.0141 µM [quencher, full curve] | –
37 | CCN1CCN(C(=O)c2ccc3c(c2)N(Cc2ccccc2)C(=O)c2ccccc2S3=O)CC1 (configuration not stated) | inconclusive: 112 µM [quencher, partial curve] | –
38 | C=CCNC(NC(=O)c1ccccc1)(C(=O)OCC)C(F)(F)F (configuration not stated) | inactive | –

Row | SMILES | Potency | fluorescence change, negative = quenching
39 | CC(=O)c1cccc(N(C(=O)Cn2nnc3ccccc32)C(C(=O)NCc2ccccc2)c2ccc(F)cc2)c1 (configuration not stated) | inconclusive: 2.51 µM [falling, full curve, poor fit] | –
40 | Nc1[nH]n2c(=O)cc(-c3ccccc3)nc2c1N=Nc1ccc(S(N)(=O)=O)cc1 | inconclusive: 50.1 µM [quencher, partial curve] | –
41 | NC12CC3CC(CC(C3)C1)C2 | inconclusive: 112 µM [quencher, partial curve] and inconclusive: 8.9 nM [quencher, full curve] | –
42 | C/C=C/C=N/Nc1nc(-c2ccc([N+](=O)[O-])cc2)cs1 | inactive | –
43 | Cn1cc(S(=O)(=O)N2CCCCCC2)cc1C(=O)NCc1ccc(Cl)cc1 | inconclusive: 0.562 µM [falling, full curve, poor fit] | –
44 | O=C(CN1C(=O)c2cccnc2Oc2ccc(Cl)cc21)NCCCN1CCCCC1 | inconclusive: 20 µM [quencher, full curve] | –
45 | C/C(=N/NC(=O)c1cc2ccccc2cc1O)C1C(=O)c2ccccc2C1=O | active: 39.8 µM [quencher] | –
46 | COc1cccc(CCNC(=O)c2ccc(Cn3c(SCc4ccccc4)nc4cccnc43)cc2)c1 | inconclusive: 20 µM [quencher, full curve] | –
47 | COCCNc1nc2c(S(=O)(=O)c3ccccc3)nnn2c2ccc(Cl)cc12 | inconclusive: 44.7 µM [falling, partial curve, poor fit] | –
48 | CC1=NN(C(=O)c2csc(C)c2C)C(O)(C(F)(F)F)C1 (configuration not stated) | inconclusive: 0.0355 µM [falling, full curve, poor fit] | –
49 | CN1CCN(CCC(=O)N/N=C/c2ccccc2F)CC1 | inactive | –
50 | Cc1cn([C@@H]2C[C@H](N=[N+]=N)[C@H](CO)O2)c(=O)[nH]c1=O | inactive | –
51 | CCc1ccc(CN(Cc2ccco2)c2cnc(S(C)(=O)=O)nc2C(=O)Nc2ccc(C)c(Cl)c2)cc1 | inconclusive: 1260 µM [falling, partial curve, poor fit] | –
52 | NC(N)=Nc1cc2ccccc2c2ccccc12 | inactive | –
53 | CCOc1ccc(C2c3[nH]c4ccccc4c3CCN2C(=O)CSc2ccccc2)cc1 (configuration not stated) | active: 2.82 µM [quencher] | –
54 | CCOC(=O)c1cc(NC(=O)c2ccc(C)cc2)c(=O)n2c1oc1ccccc12 | inconclusive: 0.0708 µM [quencher, full curve] | –
55 | Cc1cccc(S(=O)(=O)c2cn(Cc3ccc(F)cc3)c3cc(N4CCCCC4)c(F)cc3c2=O)c1 | inactive | –
56 | CCc1ccccc1NC(=O)c1cc(-c2ccc(OC)cc2)on1 | inconclusive: 28.2 µM [quencher, full curve] | –
57 | CCN(CC)C(=O)COC(=O)c1cc(-c2ccco2)nc2ccccc12 | active: 35.5 µM [quencher] | –
